In the antibiotic and cytotoxicity screens of Wong et al. (2023):
The list shows a part of the results.

The molecules below were run on S. aureus RN4220 (assay: growth inhibition call (relative growth <= 0.2)). Conditions: 50 µM.

Growth inhibition call, inactive:
O=C(C[C@@H]1C=C[C@H](NC(=O)c2ccc3c(c2)OCO3)[C@@H](CO)O1)NCc1ccc(Oc2ccccc2)cc1, C[C@@H]1CN([C@H](C)CO)C(=O)Cc2cc(NC(=O)Nc3ccc(C(F)(F)F)cc3)ccc2O[C@H]1CN(C)Cc1ccc(C(=O)Nc2ccccc2N)cc1, C/C=C/c1ccc2c(c1)O[C@H](CN(C)Cc1ccc(C(=O)O)cc1)[C@@H](C)CN([C@@H](C)CO)S2(=O)=O, COc1ccc(CN(C)C[C@@H]2OCCCC[C@@H](C)Oc3ccc(NC(=O)NC4CCCCC4)cc3C(=O)N([C@H](C)CO)C[C@H]2C)cc1, C[C@@H]1CN([C@H](C)CO)S(=O)(=O)c2ccc(C#Cc3ccc(F)cc3)cc2O[C@H]1CN(C)C(=O)CN(C)C, CN1C(=O)c2cc(NC(=O)Cc3cccs3)ccc2OC[C@@H]2O[C@H](CC(=O)NCCc3ccncc3)CC[C@H]21, COc1ccc(CN(C)C[C@@H]2OCCCC[C@@H](C)Oc3ccc(NS(=O)(=O)c4ccc(OC)cc4)cc3C(=O)N([C@H](C)CO)C[C@@H]2C)cc1, COc1c(C)c2c(c(O)c1CC=C(C)CCC(=O)OCCN1CCOCC1)C(=O)OC2, C[C@H]1CN([C@@H](C)CO)C(=O)c2cc(NS(C)(=O)=O)ccc2O[C@H]1CN(C)S(C)(=O)=O, COc1cccc(S(=O)(=O)N(C)C[C@H]2OCc3cnnn3CCCC(=O)N([C@H](C)CO)C[C@H]2C)c1, O=C(Nc1ccc(-c2nc3cc(NC(=O)c4ccccc4[N+](=O)[O-])ccc3o2)cc1)c1ccccc1[N+](=O)[O-], Cc1ccc(S(=O)(=O)Nc2ccc3c(c2)C(=O)N([C@H](C)CO)C[C@@H](C)[C@@H](CN(C)S(=O)(=O)c2c(C)noc2C)O3)cc1, C[C@H]1CN([C@@H](C)CO)C(=O)Cc2cc(NC(=O)Nc3ccc(F)cc3)ccc2O[C@H]1CN(C)Cc1ccc(-c2ccccc2)cc1, COc1ccc(NC(=O)Nc2ccc3c(c2)C(=O)N([C@H](C)CO)C[C@@H](C)[C@H](CN(C)Cc2ccc(C(=O)O)cc2)OCCCC[C@@H](C)O3)cc1, C[C@@H]1CCCCO[C@H](CN(C)S(=O)(=O)c2ccc(Cl)cc2)[C@H](C)CN([C@H](C)CO)C(=O)c2cc(NC(=O)Cc3ccccc3)ccc2O1, C[C@@H]1CN([C@H](C)CO)C(=O)Cc2cc(NC(=O)Nc3ccccc3)ccc2O[C@@H]1CN(C)Cc1ccc(Oc2ccccc2)cc1, Cc1noc(C)c1S(=O)(=O)N(C)C[C@H]1OCCCC[C@H](C)Oc2ccc(NC(=O)Nc3ccccc3)cc2C(=O)N([C@H](C)CO)C[C@H]1C, CN(C)CCCCCCNC(=O)[C@@H]1C[C@@H]2C(=O)N[C@@H](CCCC[N+](C)(C)C)C(=O)N2[C@@H]1c1cccc(OCCO)c1, C[C@@H]1CN([C@H](C)CO)C(=O)c2cc(NC(=O)CCC(F)(F)F)ccc2O[C@@H](C)CCCCO[C@@H]1CN(C)Cc1ccc(C(=O)O)cc1, C[C@@H]1CN([C@H](C)CO)C(=O)Cc2cc(NC(=O)CCN3CCOCC3)ccc2O[C@@H]1CN(C)S(=O)(=O)c1cccs1, C[C@@H]1CN([C@H](C)CO)C(=O)c2cccc(NC(=O)C3CC3)c2O[C@H]1CN(C)Cc1ccc(C(=O)O)cc1, Cl.NC(N)=NC(=O)Cc1c(Cl)cccc1Cl, COc1ccc(S(=O)(=O)N(C)C[C@H]2Oc3ccc(NS(=O)(=O)c4ccccc4)cc3CC(=O)N([C@H](C)CO)C[C@H]2C)cc1, COCC(=O)N1[C@@H]2c3ccc(C4=CCCC4)c(=O)n3C[C@@H]2[C@@H](CO)[C@@H]1C(=O)N1CCN(C)CC1, C[C@@H]1CN([C@@H](C)CO)C(=O)c2cc(NC(=O)C3CCCCC3)ccc2O[C@@H](C)CCCCO[C@@H]1CN(C)C(=O)c1ccncc1, Cc1noc(C)c1NC(=O)N(C)C[C@H]1Oc2ccc(NS(=O)(=O)c3cccs3)cc2CC(=O)N([C@@H](C)CO)C[C@@H]1C, CCCCC[C@@H](C)N, CCC(CC)c1ccc(O)cc1, C=CCNC(=O)C(=O)NC[C@H]1OCCCN1S(=O)(=O)c1ccccc1, COCCOC(=O)N1C(=O)[C@@]2(c3cc(C#CCC(C(=O)OC)C(=O)OC)ccc31)[C@H](C(=O)N1CCc3cc(OC)c(OC)cc3C1)[C@H]1C(=O)O[C@H](c3ccccc3)[C@H](c3ccccc3)N1[C@@H]2c1ccc(O)cc1, C[C@H](O)C#Cc1ccc2c(c1)O[C@H](CN(C)C(=O)Cc1ccccn1)[C@H](C)CN([C@H](C)CO)S2(=O)=O, NCCONC(=O)[C@@H]1CC[C@@H]2CN1C(=O)N2OS(=O)(=O)O, C[C@@H]1CCCCO[C@@H](CN(C)S(=O)(=O)c2ccc(F)cc2)[C@H](C)CN([C@@H](C)CO)C(=O)c2cc(NC(=O)Nc3cccc4ccccc34)ccc2O1, Cc1ccc(S(=O)(=O)Nc2ccc3c(c2)C(=O)N([C@@H](C)CO)C[C@@H](C)[C@@H](CN(C)Cc2ccc(Cl)c(Cl)c2)OCCCC[C@@H](C)O3)cc1, CC(C)C#Cc1ccc2c(c1)O[C@@H](CN(C)C(=O)Cc1ccccn1)[C@H](C)CN([C@H](C)CO)S2(=O)=O, O=C(C[C@@H]1CC[C@@H]2[C@H](COC[C@H](O)CN2C(=O)c2ccccc2)O1)NCCCN1CCOCC1, C[C@H]1CN([C@@H](C)CO)C(=O)Cc2cc(NC(=O)Cc3cn(C)c4ccccc34)ccc2O[C@H]1CN(C)C(=O)Nc1cccc2ccccc12, Cc1noc(C)c1S(=O)(=O)N(C)C[C@H]1OCc2cnnn2CCCC(=O)N([C@@H](C)CO)C[C@H]1C, Cc1ccc2nc(CN)[nH]c2c1, CO[C@H]1CN(C)C(=O)c2cc(NS(=O)(=O)CC(F)(F)F)ccc2OC[C@@H](C)N(Cc2ccccn2)C[C@@H]1C
